The values below come from patent US20230399408A1 (AB THERAPEUTICS, published 2023).

This experiment concerns the target T1, c-MET-His tag protein (human, UniProt P08581 25-932).
T1 construct: also called cMET-HIS tagged; not shown: His tag
Description: ELISA on coated c-MET-His tag protein (4 ug/ml), biotinylated human HGF, streptavidin-HRP.

c-MET-His tag protein, sequence (P08581 25-932 limits assumed): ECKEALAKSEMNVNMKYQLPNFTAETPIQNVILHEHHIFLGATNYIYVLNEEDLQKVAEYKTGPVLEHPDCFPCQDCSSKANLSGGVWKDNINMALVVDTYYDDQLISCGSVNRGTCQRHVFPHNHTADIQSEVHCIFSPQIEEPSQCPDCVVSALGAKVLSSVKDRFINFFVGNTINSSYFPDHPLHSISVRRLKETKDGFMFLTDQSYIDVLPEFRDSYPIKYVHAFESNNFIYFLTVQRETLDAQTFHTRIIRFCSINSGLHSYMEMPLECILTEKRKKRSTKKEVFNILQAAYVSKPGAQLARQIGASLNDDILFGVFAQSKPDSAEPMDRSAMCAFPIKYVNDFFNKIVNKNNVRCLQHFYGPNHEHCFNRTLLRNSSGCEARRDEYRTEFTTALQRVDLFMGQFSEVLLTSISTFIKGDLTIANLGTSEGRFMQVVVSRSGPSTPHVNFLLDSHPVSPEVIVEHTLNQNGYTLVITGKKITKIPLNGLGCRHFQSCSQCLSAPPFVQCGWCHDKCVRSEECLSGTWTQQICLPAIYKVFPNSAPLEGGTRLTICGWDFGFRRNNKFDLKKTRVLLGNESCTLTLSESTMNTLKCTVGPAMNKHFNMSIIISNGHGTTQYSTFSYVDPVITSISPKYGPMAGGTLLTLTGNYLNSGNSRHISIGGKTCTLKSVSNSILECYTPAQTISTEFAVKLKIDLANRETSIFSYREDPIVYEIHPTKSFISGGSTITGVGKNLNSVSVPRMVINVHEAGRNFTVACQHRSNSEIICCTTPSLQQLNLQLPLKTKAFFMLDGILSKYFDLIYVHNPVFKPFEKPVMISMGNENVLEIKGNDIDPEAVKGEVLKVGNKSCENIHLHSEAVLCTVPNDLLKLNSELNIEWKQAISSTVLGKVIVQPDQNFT

B1: biotinylated Hu-HGF protein (ligand)
chain: not shown
modifications: biotinylated
notes: also called human HGF; Hu-HGF-B
Regarding B1, the binding result is “binds”.
